# Test results from the supplement of paper PMC3334620.
# Whole data set: some 33,000 sequences, median “E-score (-0.5 to 0.5)” near -0.036, cut for the highest 2% near 0.37. Some of the results follow.
# Biological target: T1, Yer064c (UniProt P40041)
# T1 sequence: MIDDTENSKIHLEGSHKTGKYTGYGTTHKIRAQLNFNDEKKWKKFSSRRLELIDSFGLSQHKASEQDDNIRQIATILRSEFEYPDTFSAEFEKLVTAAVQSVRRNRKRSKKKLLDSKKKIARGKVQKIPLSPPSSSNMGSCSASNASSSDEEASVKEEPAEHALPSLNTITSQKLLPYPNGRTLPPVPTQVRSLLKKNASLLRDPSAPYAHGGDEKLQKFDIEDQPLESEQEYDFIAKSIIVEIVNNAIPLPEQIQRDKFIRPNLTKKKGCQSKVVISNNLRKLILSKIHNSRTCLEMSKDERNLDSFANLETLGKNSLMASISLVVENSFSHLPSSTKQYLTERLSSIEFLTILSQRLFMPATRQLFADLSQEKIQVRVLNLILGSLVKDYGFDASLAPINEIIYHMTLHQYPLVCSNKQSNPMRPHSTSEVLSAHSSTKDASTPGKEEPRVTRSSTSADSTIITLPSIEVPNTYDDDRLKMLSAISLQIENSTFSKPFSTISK
# Experiment: PBM E-score (8-mer binding enrichment) (E-score (-0.5 to 0.5)); higher = stronger / more preferred TF binding; most listed sequences are background and not binding sites
# Conditions: protein concentration: 200 nM; construct: GST-full length
# Method: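 Universal 'all 10-mer' protein binding microarrays (Agilent AMADID 015681) probed with GST-tagged S. cerevisiae TFs (full-length or DBD) made by in vitro transcription/translation (PURExpress), about 100-200 nM. Bound TF was detected with fluorescent anti-GST. Each ungapped 8-mer (which stands for itself and its reverse complement) is scored by the PBM enrichment score (E-score), a modified Wilcoxon-Mann-Whitney statistic from -0.5 to +0.5, computed with the Universal PBM Analysis Suite. Scale: above 0.35 generally sequence-specific binding.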
row,Sequence,PBM E-score
1,AGGGACCT,-0.293
2,ATGATCTG,0.148
3,CGCTGTGC,-0.183
4,CGACAAGC,-0.374
5,CAACATCC,-0.266
6,CCGGGAGC,-0.0914
7,AGGCTGAG,-0.0227
8,CCAAAGTA,0.0323
9,GAAGTTAA,-0.0823
10,ACATCAAT,0.111
11,CAAACCAC,-0.123
12,CCACCAAG,-0.137
13,AAACCCAG,-0.16
14,ACATCAAC,0.0386
15,AATAACAC,-0.207
16,GACCAAGC,-0.107
17,ATCAATGC,-0.193
18,AACATCCA,-0.155
19,GGACAAAC,0.0677
20,GAAAAGGA,-0.166
21,ATAGCCAG,-0.0249
22,CCTGATCG,-0.0675
23,AAATTGAT,0.061
24,ATTTGTGA,0.163
25,GAGCTAAA,-0.135

row,Sequence,PBM E-score
1,TCCTGCCA,-0.174
2,ACCTCCAA,0.0762
3,ATGGAAAA,-0.135
4,ACGGGTCA,-0.12
5,AAAGCTTT,0.123
6,AGTACGGA,0.0676
7,ACTCAGAC,0.284
8,ATAGTCTC,0.346
9,AAAACAGT,0.137
10,ACAGCCCG,-0.195
11,ACGCCTTG,-0.152
12,AGTCTGAA,0.231
13,CTGATGGA,-0.00528
14,AGAGAGAA,-0.00421
15,AAAAGGCC,0.0115
16,CCGGCTGC,-0.221
17,CAATAAAA,0.211
18,AATCTCTG,0.0789
19,AGAGGAAA,-0.0405
20,CTGTAGAA,-0.164
21,GAGTCAGA,0.472
22,AGTGTTAA,0.0615
23,CCAATTAA,0.0698
24,AAAAACGG,-0.229
25,AACTCCGA,-0.0453

row,Sequence,PBM E-score
1,ACTAACAG,0.258
2,ACACAGAG,0.0141
3,CCGTTATA,-0.127
4,ATGCATTA,0.0181
5,GATAGCAA,0.137
6,AGGACAAT,-0.0238
7,ACTGAGCC,0.259
8,CAGAGAGA,0.057
9,AAATCCAA,-0.115
10,GAAGGAGA,-0.0083
11,ATAACTGG,-0.0408
12,CTAGCAAG,-0.0416
13,CAAACCTG,0.0192
14,GGAGAACA,-0.295
15,GGTAAAAC,0.0215
16,ACAATCCG,-0.0699
17,CTGAGCGA,0.15
18,AGGGCGCA,-0.31
19,GAGGCCTA,-0.266
20,ATGGAGGA,-0.0155
21,CAGGGTCA,-0.0895
22,CACGTATC,-0.112
23,CAAGGTGG,-0.216
24,CACAACGA,0.151
25,CCTTGTGA,0.122

row,Sequence,PBM E-score
1,CGCTGCCC,-0.166
2,CGGTTTCA,-0.117
3,AGAAATTC,-0.117
4,AGCTAAGG,-0.317
5,ACCACCAC,-0.0314
6,AAATCGCA,-0.0346
7,CAGTGCCG,-0.102
8,GCAGATTA,0.172
9,CGGGGTAG,-0.0971
10,AATTATTC,0.0745
11,ATACGGCA,-0.154
12,ACGTGTAT,0.00231
13,AACACTAG,-0.0103
14,CCGCGCTA,0.00301
15,CTAGATAA,0.13
16,AATTGCAT,-0.00375
17,ATCCTCTG,-0.14
18,ATGGCCCC,-0.424
19,GCGATACA,0.0513
20,CGAAGTAA,0.029
21,ACATCTGA,0.0672
22,ATATCAAT,0.101
23,CAGAATTA,-0.0545
24,CAGTGGCA,-0.215
25,AGGGATGA,0.126

row,Sequence,PBM E-score
1,GAGGAAGA,-0.108
2,CAGCAAGG,-0.047
3,ACAAATGT,-0.0243
4,GTTCCATA,-0.205
5,CACCTACG,0.0159
6,AGCTGCAT,-0.204
7,TTCCAAAA,0.0767
8,CGCGGGTA,0.0646
9,AACGACTG,0.133
10,ATACTAGA,0.111
11,AGTAGGAT,0.044
12,AAATTTCC,-0.0423
13,ATGAGTTA,0.288
14,CATTGTCA,0.0033
15,GACTTCTC,0.231
16,CGAAAGCA,-0.111
17,AGGTAGAC,-0.0676
18,ATAGGGTC,0.0568
19,CAACGTGG,-0.0771
20,ACCATTAC,0.0626
21,CCAACCCC,-0.111
22,TGCACCCA,0.0356
23,TATATCGA,-0.0135
24,GAGCGGAC,-0.144
25,ATTCACTA,0.245

row,Sequence,PBM E-score
1,CCAGGACC,-0.253
2,GTGTACCA,-0.105
3,GATGTGGC,-0.136
4,CTCGCGTA,-0.00856
5,GCGTCCCA,-0.214
6,AAAGCCCT,-0.0999
7,TAGTATAA,0.116
8,CGTAAGAC,0.263
9,ATCTGGGG,-0.125
10,TACGCAGA,0.1
11,TGAAACAA,0.0181
12,AACCTCCG,-0.0192
13,GGACAACC,-0.249
14,CGAGGCCC,-0.351
15,CCCTGAGA,-0.0811
16,ATCCATGC,-0.181
17,CCAACGTA,-0.106
18,AAGATCCG,-0.234
19,GGTTTAGA,-0.00087
20,ACTGTGCC,0.092
21,CTAACGAC,0.0878
22,ACAGAGAC,0.0153
23,AGGACTGA,0.244
24,AGTCATTA,0.487
25,CGCTAAGC,0.0419

row,Sequence,PBM E-score
1,ACACTCGC,0.111
2,GTAGGTCA,-0.115
3,CGGTGGTA,-0.0749
4,GAGGCAGC,-0.206
5,GCCAATCA,0.124
6,GACATCCA,-0.27
7,GAGTTGGA,0.0164
8,GGGGGAAC,-0.295
9,CATATCGC,-0.0171
10,ACCTGCAC,-0.0242
11,GGTTACAC,-0.0467
12,GAAATTGC,-0.232
13,CCCGAGAC,-0.0215
14,AAACCACG,-0.152
15,ATTTGACG,-0.0958
16,CCTCCCTC,-0.186
17,GCAACTCC,-0.278
18,GAACCCAA,-0.00777
19,ATCAGATG,0.0687
20,GGATCTCA,-0.162
21,AATGCGGC,-0.244
22,CGTGATAC,-0.131
